In all, about 33,000 sequences were measured (“E-score (-0.5 to 0.5)”: median about -0.016, highest 2% from about 0.32 on). The list shows a part of the results.
What follows are sequences tested against T1, Stp1 (UniProt B3LFK1) (assay: PBM E-score (8-mer binding enrichment) (E-score (-0.5 to 0.5)); higher = stronger / more preferred TF binding; most listed sequences are background and not binding sites). Conditions: protein concentration: 200 nM; construct: GST-full length.
T1 sequence: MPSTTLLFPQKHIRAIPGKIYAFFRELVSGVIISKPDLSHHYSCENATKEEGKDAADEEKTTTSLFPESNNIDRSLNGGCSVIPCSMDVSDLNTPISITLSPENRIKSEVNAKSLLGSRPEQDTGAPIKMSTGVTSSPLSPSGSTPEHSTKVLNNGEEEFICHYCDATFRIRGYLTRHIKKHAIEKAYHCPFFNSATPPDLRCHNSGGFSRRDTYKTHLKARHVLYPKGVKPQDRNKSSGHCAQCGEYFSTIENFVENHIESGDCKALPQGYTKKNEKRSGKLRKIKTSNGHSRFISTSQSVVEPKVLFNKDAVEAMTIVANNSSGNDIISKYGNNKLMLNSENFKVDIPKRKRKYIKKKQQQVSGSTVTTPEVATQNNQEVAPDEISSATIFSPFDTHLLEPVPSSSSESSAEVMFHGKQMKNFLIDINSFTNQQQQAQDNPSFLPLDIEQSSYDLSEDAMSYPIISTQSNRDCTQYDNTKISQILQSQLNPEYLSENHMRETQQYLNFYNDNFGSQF
Procedure, shortened: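 GST-tagged yeast TFs (full-length or DNA-binding domain) were made by PURExpress in vitro transcription/translation and applied at about 100-200 nM to universal all-10-mer Agilent arrays. The arrays were made double-stranded by primer extension, on fresh or once-stripped slides. Bound protein was detected with fluorescent anti-GST, and scans were normalised with masliner. Each ungapped eight-base word, pooled with its reverse complement, received an E-score (modified Wilcoxon-Mann-Whitney statistic) from the Universal PBM Analysis Suite.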

| Sequence | PBM E-score |
| --- | --- |
| AACCCATT | -0.081 |
| GGTGACTA | -0.0454 |
| ACGGCTAG | 0.235 |
| CCCCGCAG | -0.0786 |
| CCTCTATA | -0.0586 |
| ACGAAAAA | 0.0737 |
| CGGCTAAG | 0.226 |
| AAAGCTAG | -0.247 |
| CTCGAGGC | -0.0238 |
| GGGTCCCA | -0.279 |
| CCGGCACG | 0.27 |
| CGCAGGCC | -0.139 |
| AAGCAGTG | -0.0307 |
| CGAAGCCC | -0.0352 |
| GGCCACAA | 0.0978 |
| GAAACGGA | 0.132 |
| ATTGTCGC | 0.112 |
| ATATGAGG | -0.0922 |
| CGCAGCGA | -0.101 |
| CGCGCGTC | 0.16 |
| AAGTCACC | -0.263 |
| CTAAGCTA | 0.103 |
| AACGCGTG | 0.144 |
| CTTAAAAA | 0.0532 |
| AGGTTCAG | -0.0505 |

| Sequence | PBM E-score |
| --- | --- |
| CTTCCTCC | -0.235 |
| GGAGCTGA | -0.212 |
| AGTCGGGC | -0.209 |
| ACTGCTCC | -0.21 |
| ACCAACCC | -0.06 |
| CATGGACG | -0.0442 |
| CGCGCCGC | 0.483 |
| CTGTGCCA | -0.0168 |
| CGCTCCCG | -0.194 |
| ACGTCGGA | -0.227 |
| ACAGCTGA | 0.052 |
| AGAATTAT | -0.0351 |
| CGAAATCG | 0.00988 |
| CTTAGATC | -0.0805 |
| CTGAACAA | 0.0991 |
| GAATGGAA | 0.143 |
| GGATCGGA | 0.0162 |
| CCTCCGAG | -0.238 |
| TGCAAGAA | 0.169 |
| GATGGTCA | -0.116 |
| CCGAACGC | 0.226 |
| ACACGAGG | 0.0411 |
| AAATCAGG | -0.0251 |
| CCAGAGGA | -0.158 |
| AAGGGTAA | -0.26 |

| Sequence | PBM E-score |
| --- | --- |
| CCGAGTTA | 0.0424 |
| ATCATCCG | 0.0215 |
| TCGGCACA | 0.135 |
| GACGGCCC | 0.069 |
| ACCCGGCT | -0.133 |
| CTGTTCCA | -0.143 |
| AAGCAGGC | -0.277 |
| TCTGCACA | -0.0429 |
| GACTGTTA | -0.141 |
| CAACCGAC | 0.0928 |
| CTGCACAA | 0.0933 |
| AGCACACA | -0.358 |
| AAACACTC | 0.013 |
| AGGATCTC | -0.245 |
| AGGAGTCC | -0.151 |
| ATGGGTGC | -0.106 |
| CTTCGTGA | -0.0602 |
| ACATTCAC | -0.0143 |
| CGAAGATA | 0.114 |
| ACGTTAAC | 0.0164 |
| GTCTCCCA | -0.274 |
| ATTTGATG | 0.0645 |
| CCACCATA | -0.0321 |
| ACGCTCTG | -0.215 |
| GAAATCTC | -0.0432 |

| Sequence | PBM E-score |
| --- | --- |
| GGCCGTCA | -0.0626 |
| ATTGACTA | -0.0906 |
| CCAGGGAG | -0.343 |
| CTCTTGGA | 0.00544 |
| CCTGCGCG | 0.0126 |
| CCGCCTCA | 0.246 |
| AGAAGGGG | -0.166 |
| CATCCTTA | -0.0162 |
| ATGATATG | 0.0864 |
| GGAGTGAC | -0.0819 |
| CAGAGAGG | -0.207 |
| CCTTCTCG | -0.0971 |
| GTGCACGA | -0.0788 |
| ACTTAGCG | 0.0102 |
| AGGCAAAC | 0.118 |
| ATCACCAC | 0.0187 |
| ATAAGGGC | -0.0696 |
| CACCGCTC | -0.0467 |
| CAGTAGTC | -0.252 |
| GTCGAACA | 0.0174 |
| ACTTTGAA | 0.0491 |
| AACGATGG | -0.155 |
| ACAGAACT | 0.0231 |
| ACCCTGAT | -0.229 |
| AGATGAGA | 0.0792 |

| Sequence | PBM E-score |
| --- | --- |
| AATCTAAA | 0.131 |
| CTGATATC | 0.272 |
| GCGGAAAA | 0.176 |
| GCACCTGA | 0.00901 |
| GCAAGGAC | 0.00567 |
| AAGACAAC | 0.187 |
| ACACAGTA | 0.0897 |
| ATTTGACC | -0.015 |
| ACCATGAC | 0.0685 |
| AAGTCTAG | -0.31 |
| CACGAGTG | -0.0748 |
| GAAATAAC | 0.153 |
| CTTAATAA | 0.129 |
| GAGACAAA | -0.169 |
| AACAGTGC | -0.0025 |
| TATCAACA | 0.107 |
| CGCGCCCA | 0.213 |
| TAACTTAA | 0.213 |
| GCAGTCGA | -0.137 |
| ACGGCTAA | 0.377 |
| ACCTTTAC | 0.0425 |
| GGCGGTGA | -0.0389 |
| CAGGTCCC | -0.157 |
| AGCACATG | 0.0725 |
| GTATAGTA | -0.00942 |

| Sequence | PBM E-score |
| --- | --- |
| ATATGCAT | -0.0712 |
| CTCAAAGA | -0.163 |
| AGAGTGTC | 0.0784 |
| ACAGAAAG | 0.0157 |
| GGGCACTA | 0.23 |
| ACTATAAA | 0.171 |
| ATATCTTG | 0.0836 |
| AATCGACG | 0.0603 |
| AACAACAG | -0.0396 |
| CAAGGACA | 0.00903 |
| GTCGTCAA | -0.0852 |
| CGATTGGA | 0.00336 |
| GAATATAC | 0.116 |
| AATCTCGT | 0.108 |
| CCTCACAA | 0.151 |
| TAAAAATA | 0.227 |
| ATGAAGTA | 0.0646 |
| AGTTCAGC | -0.165 |
| CGTCAAAA | 0.164 |
| ATATGGAA | -0.0684 |
| AGCGCTTG | -0.16 |
| GTGGTAAC | -0.0165 |
| ACCCTCCG | -0.326 |
| CGTATTGA | 0.108 |
| AAGAATGC | 0.101 |

| Sequence | PBM E-score |
| --- | --- |
| ACCGGACG | 0.175 |
| CATAGTCG | -0.142 |
| CTGGTAGC | -0.0574 |
| GGACCGAA | -0.0482 |
| ACGGCCGT | 0.401 |
| AAGGGAAC | -0.185 |
| ACGTAACA | 0.05 |
| ATCTAAGA | 0.0545 |
| ATGTGTGC | -0.149 |
| CTTGCGGA | -0.11 |
| TAGTGCAA | 0.0577 |
| CATAACGA | -0.0382 |
| CGCAATAA | 0.15 |
| GTTAGCCA | -0.117 |
| AACTACGT | -0.0263 |
| ACATATAA | 0.213 |
| ATTACAGG | 0.159 |
| ATGACAGA | 0.0404 |
| GGGGCCAC | -0.225 |
| AGTTGGTC | -0.0836 |
| ATTCGAAA | 0.0825 |
| GCCGGCAC | 0.273 |

Reference: the supplement of paper PMC3334620
